Test [1] concerns the target T1, human PD-L1 recombinant protein (human, UniProt Q9NZQ7 fragment).
T1 construct: also called recombinant PD-L1 protein; recombinant PD-L1
Put plainly: BLI, human PD-L1 recombinant protein. For orientation: BLI is a label-free optical method that tracks binding on a fibre tip over time.

The target of test [2] is T2, PD-L1-mFc (human, UniProt Q9NZQ7 fragment).
T2 construct: range 19-238; not shown: mouse Fc (mFc)
Put plainly: competition ELISA: PD-1-hFc coated, hzF2 dilutions with 0.5 µg/mL PD-L1-mFc, anti-mouse Fc detection. How it is done: Human PD-1-hFc (PD-1 Sequence No. NP_005009.2, 21aa-167aa) was diluted with PBS to 0.5 µg/mL, coated on an ELISA plate overnight at 4° C. Then the plate was blocked with 5% BSA for 60 min at 37° C. in a thermostatic incubator. Gradient dilutions of hzF2 and control antibody KN035, and an isotype control NC-hIgG1 (initial working concentration of 50 nM, 1.5-fold dilution to 10 concentration gradients), were added, then PD-L1-mFc (PD-L1 Sequence No. NP_054862.1, 19aa-238aa) was added at a working concentration of 0.5 µg/mL, co-incubated and reacted in a thermostatic incubator at 37° C. for 60 min. The plate was washed 4 times with PBST; then added 1:5000 diluted HRP-anti-mouse Fc (Cat.:115-035-071, Jackson Immuno Research) thereto, reacted for 45 min, and added TMB (Beijing Taitianhe Biology, Cat.: ME142) substrate to develop color for 15 min. After adding 2 M HCl to stop the reaction, the plate was read and recorded about the absorbance value of A450nm-630nm of the well plate by a reader taking 630 nm as the reference wavelength, and 450 nm as the detection wavelength.

Test [3] deals with T3, human PD-L1 expressed on the cell surface (human, UniProt Q9NZQ7). Put plainly: cell-based or functional assay.
Test [4] addresses T4, murine PD-L1 recombinant protein (murine, UniProt Q9EP73 fragment, limits assumed).
T4 construct: also called recombinant murine PD-L1
T4 sequence (Q9EP73 19-238 limits assumed): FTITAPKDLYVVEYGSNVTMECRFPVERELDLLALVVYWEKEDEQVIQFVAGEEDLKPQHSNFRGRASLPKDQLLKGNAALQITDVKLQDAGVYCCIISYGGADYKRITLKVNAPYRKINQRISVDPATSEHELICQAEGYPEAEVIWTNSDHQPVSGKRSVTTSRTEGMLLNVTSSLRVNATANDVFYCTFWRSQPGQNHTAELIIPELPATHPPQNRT
Put plainly: BLI (Octet QKe), antibody captured on AHC probe, antigen as mobile phase. How it is done:
(§1) The Octet QKe system instrument from Fortebio Company was used to determine whether chF2 could bind to recombinant monkey PD-L1 and recombinant murine PD-L1 by using the capture antibody (AHC) biological probe of anti-human antibody Fc segment to capture the Fc segment of the antibody. During the measurement, chF2 was diluted to 4 µg/mL with PBS buffer and flowed over the surface of AHC probe (PALL, Cat.: 18-0015) for 120 s. The monkey PD-L1 recombinant protein and the murine PD-L1 recombinant protein were used as mobile phases to interact with the antibodies captured on the surface of the chip. The PD-L1 recombinant protein concentration was 60 nM. The binding time of each antigen was 300 s, and the final dissociation time was 300 s.

In test [5] the target is T3, human PD-L1 expressed on the cell …. Put plainly: flow cytometry on CHO-PD-L1-CD3L cells, FITC anti-human Fc. How it is done:
Cells (CHO-PD-L1-CD3L cells) were collected after centrifugation, divided into 5×10⁵ cells/sample/100 µL. Gradient diluted single variable domain antibody was added to the cells at a final concentration of 66 nM as the highest concentration, 3-fold serial dilution to make 10 gradients; then incubated on ice for 2h. The cells were washed twice with ice-cold PBS (containing 0.05% Tween). FITC-labeled anti-human Fc secondary antibody (Cat.: F9512, Sigma) was added, and incubated on ice for 1h. The cells were washed twice with ice-cold PBS (containing 0.05% Tween), resuspended in 200 µL of Flow Cytometry Buffer, and the mean fluorescence intensity (MFI) of the cells was detected by flow cytometer (Model B49007AD, SNAW31211, BECKMAN COULTER).
(A flow cytometer gives signals particle by particle.)

The target in test [6] is T1, human PD-L1 recombinant protein. Put plainly: BLI (Octet QKe), antibody captured on AHC probe, PD-L1 60 nM. The method, then: Using the Octet QKe system instrument from Fortebio Company, the ability of chF2 to bind corresponding recombinant antigen was determined by using the capture antibody (AHC) biological probe against the Fc fragment of the human antibody to capture the Fc fragment of the antibody. During the measurement, chF2 was diluted with PBS buffer to 4 µg/mL, and flowed over the surface of AHC probe (Cat.: 18-0015, PALL) for 120 s. A human PD-L1 recombinant protein was used as the mobile phase to interact with the antibody captured on the chip surface. The recombinant PD-L1 protein concentration was 60 nM. The binding time for each antigen was 300 s, and the final dissociation time was 300 s.
T1 sequence (Q9NZQ7 19-238 limits assumed): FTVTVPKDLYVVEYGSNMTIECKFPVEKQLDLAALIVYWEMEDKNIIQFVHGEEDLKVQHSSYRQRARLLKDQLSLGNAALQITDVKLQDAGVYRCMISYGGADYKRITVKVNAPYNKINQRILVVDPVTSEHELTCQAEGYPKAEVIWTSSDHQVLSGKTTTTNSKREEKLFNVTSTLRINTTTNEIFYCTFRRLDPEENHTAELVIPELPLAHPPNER

Test [7] deals with T5, monkey PD-L1 recombinant protein (monkey).
T5 construct: also called recombinant monkey PD-L1
Put plainly: BLI (Octet QKe), antibody captured on AHC probe, antigen 60 nM. How it is done: as §1

2 molecules from patent US20230279115A1 (MABWELL SHANGHAI BIOSCIENCE, published 2023) can be followed below.

Chain of PD-L1-mFc (Q9NZQ7 19-238 limits assumed): as above

B1: VHH-F2-human-Fc humanized antibody (Fc fusion)
chain: EVQLVESGGGLVQPGGSLRLSCAASRDSDDGASCMGWFRQAPGKGLEGVAIIFNAGERTDYGDSVKGRFTISRDNAKNTLYLQMNSLRAEDTAVYYCATVWCGSWVARSWGQGTLVTVSSAS[gap - human IgG1 Fc with changes]
notes: Full-length chain; also called hzF2; HzF2
B1: in test [1], the Kd (in general, the free concentration of one partner at which half of the binding sites on the other are occupied at equilibrium, for simple one-to-one binding) turned out to be 1.4 nM; the dissociation rate constant (koff) – broadly, a measure of how fast the partners let go of each other – worked out at 0.000305 s⁻¹; the kon (in general, a measure of how fast the partners come together) amounted to 218000 M⁻¹ s⁻¹. The 50% inhibitory concentration (IC50) (usually the concentration that inhibits the measured activity by half) in test [2] worked out at 4.3 nM. Besides, in test [3], the “Reporter Gene Assay (Jurkat-PD1-NFAT cells and CHO-PD-L1-CD3L cells), luciferase RLU, EC50” value came out at 5.45 nM.

B2: VHH-F2-human-Fc chimeric antibody (Fc fusion)
chain: QVQLQESGGGSVQTGGSLRLACAVSRDSDDGASCMGWFRQAPGKGREGVAIIFNAGERTDYGDSVKGRFTISQDNAKNTLFLQMNSLKPEDSAMYYCATVWCGSWVARSFGQGTQVTVSSAS[gap - human IgG1 Fc with changes]
notes: Full-length chain: camel VHH-F2 variable region fused to human IgG1 Fc, expressed in 293F cells; also called chF2; human-camel chimeric single variable domain antibody
In the case of B2, the binding result in test [4] is recorded as “no binding (tested: 60 nM)”. The response in test [5] was half-maximal at 1.04 nM (EC50). Moreover, in test [6], the Kd turned out to be 1.11 nM, the koff turned out to be 0.000248 s⁻¹ and the kon turned out to be 224000 M⁻¹ s⁻¹. Besides, in test [7], the Kd is 1.4 nM, the koff amounted to 0.000305 s⁻¹ and the kon was 218000 M⁻¹ s⁻¹.
